Measured values taken from ChEMBL document CHEMBL4888484, “Replenishing the malaria drug discovery pipeline: Screening and hit evaluation of the MMV Hit Generation Library 1 (HGL1) against asexual blood stage Plasmodium falciparum ,using a nano luciferase reporter read-out” (2022).
Out of some 150,000 compounds screened, about 540 (0.36%) showed an effect of 50% or more. Some of the results follow.

Each compound was assayed on Plasmodium falciparum (assay: Primary screen in NF54 nanoGlo assay, in single point, at 2uM, 72h; a lower Z score goes with more inhibition). Details: timepoint 72 hour.
Assay type: functional, Erythrocyte

| SMILES | % Inhibition [%] | Z score |
| --- | --- | --- |
| CC1CN(C(=O)CCc2nc(-c3ccsc3)no2)C(C)CO1 (configuration not stated) | -19 | 3.63 |
| O=C(NC1CCN(C2CC2)CC1)c1ccc2c(c1)C(=O)N(CCc1ccccc1)C2=O | -13 | 1.46 |
| N[C@@H]1CCN(C(=O)c2cccnc2Oc2cccc(Br)c2)C1 | -12 | 1.38 |
| CCc1nnc2c(S(=O)(=O)N(Cc3cc(F)cc(F)c3)c3ccccc3)cccn12 | -30 | 3.87 |
| O=C(NCC1CCN(C(=O)c2ccoc2)CC1)c1ccccc1Cl | -6 | 0.91 |
| CC(C)(C)c1ccc(-c2nc(Nc3cccc(C(=O)O)c3)c3ccccc3n2)cc1 | -11 | 1.7 |
| COc1cccc2cc(C(=O)N3CCC(C(=O)NCc4nc(C)no4)CC3)oc12 | -3 | 0.42 |
| CN(C)c1ccc(Nc2c(-c3cccs3)nc3ccccn23)cc1 | -29 | 3.41 |
| CC1CN(S(=O)(=O)N(CC2CC2)CC2CC2)C(C)CO1 (configuration not stated) | -3 | 0.37 |
| O=C(NC1CCc2[nH]cnc2C1)N[C@@H]1CCCc2ccccc21 (some centres not stated) | 4 | -0.51 |
| COc1ccnc(C(=O)N2CCOC3CCCCC32)c1 (configuration not stated) | -7 | 0.83 |
| CN(C)S(=O)(=O)N1C[C@H]2CC[C@@H](C1)N(C(=O)c1cccnc1)C2 | -7 | 1 |
| Cc1ccncc1C(=O)Nc1cccc(C(=O)Nc2c(C)cccc2C)c1 | -14 | 1.76 |
| N#CC1(C(=O)N2CCCc3ccccc32)CCCC1 | -14 | 2.22 |
| COC(=O)N[C@@H](C)C(=O)NCCc1ncnn1C | 1 | -0.12 |
| O=C(COc1ccc(Cl)cc1)Nc1ccc(N2CCOCC2)nc1 | -11 | 1.24 |
| Cc1ccc(NCCCNC(=O)c2cnc3c(c2)CCCC3)nc1 | -12 | 2.44 |
| Cc1noc(C2CCN(C(=O)NCC3CCOC(C(C)C)C3)C2)n1 (configuration not stated) | -2 | 0.33 |
| Fc1ccccc1CO[C@H]1CCCNC1 | 1 | -0.12 |
| CC(C)Cc1cn(C2CCN(C(=O)Nc3ccc4c(c3)OCO4)CC2)nn1 | 2 | -0.44 |
| O=C1CCCc2cc(C(=O)NCc3nc(-c4ccco4)n[nH]3)ccc2N1 | 2 | -0.25 |
| CCN1CCC[C@@H]1Cn1cc(-c2ccc(NC(C)=O)cc2)nn1 | 1 | -0.23 |

| SMILES | % Inhibition [%] | Z score |
| --- | --- | --- |
| Cc1ccc(NC(=O)Cn2cnc(-c3nc(-c4ccccc4)cs3)c2)cc1F | 2 | -0.31 |
| Cc1ccc(-c2noc(-c3nc(C(C)C)no3)n2)cc1 | -15 | 1.35 |
| COc1ccc(CN2CCc3nc(N4CCCC4)ncc3C2)c(OC)c1 | 3 | -0.45 |
| COc1c[nH]c(C(=O)NCc2ccc3nsnc3c2)cc1=O | -1 | 0.1 |
| O=c1ccn(-c2ccc(F)c(F)c2)nc1-c1nc(-c2ccc(Cl)c(F)c2)no1 | 11 | -1.78 |
| Cc1oc(C)c(C(=O)N2CC3CCCC3C2)c1C (configuration not stated) | -7 | 0.95 |
| NC[C@H]1CCN(C(=O)c2ccc(-c3ccc(Cl)cc3)cc2F)C1 | 8 | -1.03 |
| Cc1cc(CNS(=O)(=O)c2cnn(C)c2)c(C)o1 | -14 | 2.23 |
| Cn1cnc(NC(=O)c2cccc(CN3CC[C@@H]4CCCC[C@H]4C3)c2)n1 | -4 | 0.56 |
| c1n[nH]cc1CNc1cncc2c1CCCC2 | -1 | 0.23 |
| C[C@@H]1CN(Cc2cc(F)cc(C(F)(F)F)c2)CC(C(N)=O)O1 (some centres not stated) | -11 | 1.61 |
| Cn1cc([C@@H](c2sc3ncnn3c2O)N2CCOCC2)cn1 | 26 | -2.9 |
| CCCN1C=NS(=O)(=O)c2cc(C(=O)Nc3c(C)cc(C)cc3C)ccc21 | -2 | 0.25 |
| Cc1ccc2c(c1C)N(C(=O)c1ccc(C3OCCO3)cc1)CCC2 | 2 | -0.24 |
| O=C1CCCC(=O)N1CCS(=O)(=O)NCc1cnn2c1CCCC2 | -6 | 1.21 |
| Cc1n[nH]c(C)c1S(=O)(=O)N1CC(C)NC(C)C1 (configuration not stated) | -1 | 0.11 |
| C[C@H](NC(=O)[C@H]1CC[C@H](CNS(=O)(=O)c2ccccc2)CC1)C(=O)N1CCN(CCO)CC1 | -11 | 1.22 |
| COc1ccc(N2CCN(C(=O)Cn3nc(C)nc3-c3ccc4ccccc4c3)CC2)cc1 | -5 | 0.79 |
| CCc1noc(C)c1C(=O)N1CCOCc2ccccc21 | 6 | -1.09 |
| O=C(Nc1cccnc1)C(=O)N1CCN(c2ncccn2)CC1 | -9 | 1.03 |
| O=C(Cn1nc2n(c1=O)CCCC2)Nc1ccccc1 | 0 | -0.07 |
| NC(=O)c1ccc(-c2ccc3oc(C4CC4)nc3c2)cc1 | -9 | 1.63 |

| SMILES | % Inhibition [%] | Z score |
| --- | --- | --- |
| Cc1c(NC(=O)NCC(F)(F)c2cccc(F)c2)nnn1C | -9 | 1.41 |
| CO[C@H]1C[C@@H](N(C)c2ncc(Cl)c(N(C)[C@H]3C[C@@H](OC)C3)n2)C1 | -7 | 1.01 |
| CC(C)(C)OC(=O)N1CCC2(CCC2)[C@@H](C(=O)O)C1 | -7 | 0.73 |
| Cc1ccc(Nc2nc(N)nc(CN3C(=O)NC4(CCCCC4C)C3=O)n2)cc1 (configuration not stated) | -8 | 1.24 |
| COc1ccc(CN2C(=O)CO[C@H]3CN(C4CCC4)C[C@H]32)cc1 | -2 | 0.37 |
| O=C(c1cccc(NCCOc2ccccc2)c1)N1CCC[C@H](O)C1 | 3 | -0.49 |
| CC(=O)Nc1ccc(OC[C@H](O)c2ccc(F)cc2)cc1 | -4 | 0.78 |
| Cc1ccsc1-c1nccn1CCNC(=O)c1ccc(F)cc1 | -3 | 0.58 |
| Cc1c(NC(=O)c2cc(O)ncn2)c(=O)n(-c2ccccc2)n1C | -8 | 1.41 |
| OCCn1ccnc1-c1cccc(Oc2ccccc2)c1 | 10 | -0.95 |
| C[C@]1(C(=O)Nc2nccs2)CC1(Cl)Cl | 4 | -0.48 |
| CCN(CC)c1ccc(Nc2ccc3nnnn3n2)cn1 | 0 | 0.04 |
| COCCn1cnnc1CCn1cnc(-c2ccccc2)c1-c1cccc(C#N)c1 | -10 | 1.18 |
| C=CCNC(=O)[C@@H](NC(=O)c1ccc(OC)cc1)C1CCN(C(=O)COC)CC1 | -4 | 0.52 |
| O=S1(=O)CC[C@H](N(Cc2cc(Cl)c3c(c2)OCCO3)C2CC2)C1 | -3 | 0.27 |
| CN(c1ccccc1NC(=O)N(C[C@H]1CCOC1)C1CC1)C1CCCC1 | -18 | 2.1 |
| CCc1ncnc(N2CCC[C@H](CNC(=O)Cc3ccc(OC)cc3)C2)c1F | -1 | 0.2 |
| Cc1nc(CC(C)C)nc(N2CCN(C(=O)c3cccs3)CC2)c1Cc1ccc(Cl)cc1Cl | -14 | 1.75 |
| Cc1ccsc1CCNC(=O)C[C@H]1CNCCO1 | 0 | -0.04 |
| C[C@@H](c1nnc2n1CCCCC2)n1cc(N)cn1 | 28 | -3.21 |
| CC(=O)N1CCCN(C2CN(Cc3cccc(C)c3)CC2C)CC1 (configuration not stated) | -1 | 0.07 |
| Cc1csc(NC(=O)C2CCN(c3cc(-n4cncn4)ncn3)CC2)n1 | 11 | -1.45 |

| SMILES | % Inhibition [%] | Z score |
| --- | --- | --- |
| CCNC(=O)C(C)(C)CN[C@H]1CC(C)(C)OC1(C)C | 3 | -0.59 |
| CCN(CCOC)c1cc(C(N)=O)nc(N(CC)CCOC)n1 | -2 | 0.49 |
| CN(CC1CCCC1O)C(=O)NCc1cnc(-c2ccccc2)s1 (configuration not stated) | -3 | 0.44 |
| Cc1nc(O)c(Cl)c(NCC[C@H]2CCCN(C)C2)n1 | -10 | 1.94 |
| COCCN1CCN(c2ccc(C#N)nc2)CC1=O | -9 | 1.6 |
| O=C(NCCOc1cccc(F)c1)NCC(F)F | -7 | 1.09 |
| O=C(NC1CCCCC1)c1cc2n(n1)CCN(Cc1c(Cl)cccc1Cl)C2=O | -12 | 1.53 |
| O=C1CC2(CCN(C(=O)C3CC34CCOc3ccccc34)C2)CN1 (configuration not stated) | -3 | 0.53 |
| COc1cccc(-n2ccn3cc(-c4ccc5c(c4)OCO5)nc3c2=O)c1 | 8 | -1.02 |
| O=C(CN(Cc1ccccc1)C(=O)c1ccccc1Cl)N1CCN(c2ccc(-c3ccc(Cl)cc3Cl)nn2)CC1 | -13 | 1.76 |
| CCCCCc1nnc(NC(=O)Cc2c[nH]c3ccccc23)s1 | 3 | -0.41 |
| COc1ccc(-c2cc(C(=O)Nc3c(C)n(C)n(-c4ccccc4)c3=O)no2)cc1OC | 1 | -0.14 |
| C[C@H](NC(=O)NCCC1CCCC1)c1nccs1 | -2 | 0.24 |
| CC(C)(O)C(=O)N1CCC[C@H](NC(=O)c2ccc3ccccc3c2)C1 | -1 | 0.1 |
| COC1CCN(CCNC(c2ccccc2F)C2CC3CCC2C3)CC1 (configuration not stated) | -12 | 1.59 |
| Cc1ccc(OCCNC(=O)c2ccc(CN3CCOCC3)cc2)c(C)c1 | 8 | -1.06 |
| C#CCN(C)C(=O)c1ccc(N(C)C)nc1 | 1 | -0.21 |
| O=C1c2ccccc2CS(=O)(=O)N1Cc1ccccc1 | -1 | 0.13 |
| O=C(NC(Cc1ccccn1)[C@H]1C[C@@H](O)C1)c1ccn2cnnc2c1 (some centres not stated) | 3 | -0.42 |
| Cc1noc2nc(-c3c[nH]cn3)c(-c3ccccc3)cc12 | 0 | 0.06 |
